Here are results for 56 molecules from PubChem BioAssay AID463173 (ICCB-Longwood Screening Facility, Harvard Medical School, 2010).

The whole screen tested about 52,000 compounds, of which about 1,700 (3.3%) were called active. No stated cut-off is given here; in the data, active means survival mostly below about 52% (no sharp cut-off); inactive means mostly above about 56%. The list shows a part of the results.

This experiment relates to Wild type. The experiment can be described thus: growth inhibition of S. aureus wild type versus tarO mutant, primary screen, teichoic acid synthesis inhibitors, RN4220, OD600 (AID 463173). The conditions noted are these: S. aureus RN4220 wild type/DeltatarO growth, OD600, 18 h, hits give low values, screened at 18.75 µg/mL (by protocol).
On to `COc1ccc(NC(=O)c2c(NCc3ccc(C)o3)sc3c2CCC(C)C3)cc1` (stereo unspecified), for which the survival is inactive: 136%.
Consider `Cc1nn(CCCC(=O)NCc2ccccc2)c(=O)c2c1sc1ccccc12`, for which the survival is inactive: 105%.
With `CC1CCCCN1S(=O)(=O)c1ccc(NC(=O)c2cnccn2)cc1` (stereo unspecified) the figure was inactive: 102%; with `Cc1ccc(-n2nc(C(=O)N3CCCCC3C)c(=O)n(C)c2=O)cc1` (stereo unspecified), inactive: 80%.
With `CC1CCCCN1C(=O)CSc1nnc2c3ccccc3n(CC(=O)O)c2n1` (stereo unspecified) the figure was inactive: 109%.
With `O=C(NC1CC(=O)N(c2ccccc2)C1)C1CCCC1` (stereo unspecified) the figure was inactive: 121%.
As for `Cc1ccc2c(c1)c(=O)c1ccccc1n2CCCC(=O)Nc1ccc(F)cc1F`, the survival is inactive: 84%.
Under `Cc1ccc(CSc2nc(=O)c3c(C)cc(C)nc3n2C2CC2)cc1` stands inactive: 136%; under `COC(=O)c1ccc2nc(C)cc(Nc3ccc(O)cc3)c2c1`, inactive: 153%.
With `CCOC(=O)c1cc(-c2ccc(F)cc2)n(CCC(=O)Nc2ccccc2OC)c1C` the figure was inactive: 75%; with `CC(Sc1ncc(S(=O)(=O)c2ccc(C(C)C)cc2)c(N)n1)C(=O)Nc1ccccc1` (stereo unspecified), inactive: 47%.
With `COc1ccc(NC(=O)Cn2c(=O)n(-c3ccc(Cl)cc3)c(=O)c3c(C)c(C(=O)N(C)C)sc32)cc1Cl` the figure was inactive: 73%; with `CCOC(=O)c1ccc(NC(=O)C(=O)NCc2ccco2)cc1`, inactive: 80%; with `COc1cccc(Cc2nc3ccccc3nc2SCC(=O)N2CCc3ccccc32)c1`, inactive: 78%.
For `Cc1cccc(Oc2nc3c(C)cccn3c(=O)c2/C=C(\C#N)c2nc3ccccc3s2)c1`, the survival was inactive: 71%.
As to `COC(=O)c1cc(Cl)c(NC(=O)/C=C/c2ccc(Cl)cc2Cl)cc1OC`, the survival was inactive: 71%.
Under `Cc1cccc(C2NC(=O)c3c(sc4c3CCN(C)C4)N2)c1O` (stereo unspecified) stands inactive: 128%; under `CCOC(=O)c1ccc(NC2=CC(c3ccc(Br)cc3)N(c3ccc(C(=O)OCC)cc3)C2=O)cc1` (stereo unspecified), inactive: 125%; under `CCOc1ccc(N2CC(c3nc4ccccc4n3CCCOc3ccc(OC)cc3)CC2=O)cc1` (stereo unspecified), inactive: 66%.
With `COCCNC(=O)CSc1nnc(-c2ccc(OC)c(OC)c2)c(-c2ccc(OC)c(OC)c2)n1` the figure was inactive: 68%; with `O=S(=O)(c1ccccc1)c1nc(-c2cccc(Cl)c2)oc1NCc1ccccc1`, inactive: 97%.
Under `COc1ccc(Br)c2c1-c1nc(NC(=O)c3ccccc3SC)sc1C2` stands inactive: 123%; under `Cc1c(C(=O)NCCN(C)C)oc2c1-c1nn(Cc3ccccc3Cl)cc1CC2`, inactive: 121%; under `CCN(CC)C(=O)Cn1c(C)c(C#N)c2ccccc21`, inactive: 103%.
`COc1ccccc1-c1c(C)nn2c(N3CCN(c4ccc(Cl)cc4)CC3)cc(C)nc12`: the survival was inactive: 77%.
With `CCCCOc1ccc(S(=O)(=O)Nc2cccc(-c3ccc(N4CCOCC4)nn3)c2)cc1` the figure was inactive: 51%.
Under `COc1ccc(N(CC(=O)N2CCN(c3cc(C)ccc3C)CC2)S(=O)(=O)c2c(C)noc2C)cc1` stands inactive: 79%; under `CCOC(=O)c1ccc(Nc2nc(C)cc(C)n2)cc1`, inactive: 87%; under `CC(Sc1nc(-c2ccccc2)c(C#N)c(=O)[nH]1)C(=O)Nc1ccc(F)cc1` (stereo unspecified), inactive: 91%.
Under `Cc1ccc(-n2ncc3c(NNC(=O)c4ccccc4C)ncnc32)cc1` stands inactive: 88%.
For `COc1ccc(-c2c(C)nn3c(N4CCC(C(=O)NCCC(C)C)CC4)cc(C)nc23)cc1OC`, the survival is inactive: 84%.
Under `CC(C)c1ccc(C2c3c(-c4ccccc4O)n[nH]c3C(=O)N2CCc2ccccc2)cc1` (stereo unspecified) stands inactive: 64%; under `CCc1ccc(-c2[nH]c3c(c2-c2c(-n4cccc4)n(C)c(=O)n(C)c2=O)c(=O)n(C)c(=O)n3C)cc1`, inactive: 105%.
Under `CCN(CC)CCn1c(=N)n(CC(O)COc2ccccc2C)c2ccccc21` (stereo unspecified) stands inactive: 73%.
Take `Cc1ccc(Cn2c(=O)c3c(nc4n3CCN4c3cc(C)cc(C)c3)n(C)c2=O)cc1`: the survival is inactive: 62%.
Under `C=CCn1c(C(C)NC(=O)c2ccccc2Cl)n[nH]c1=S` (stereo unspecified) stands inactive: 98%; under `CC(C)CCn1c(SCc2ccc(F)cc2Cl)nc2ccsc2c1=O`, inactive: 69%.
Under `CC1=C(C(=O)Nc2ccccc2)C(c2ccc(C(=O)O)cc2)n2nc(SCC(=O)c3ccc(C)cc3)nc2N1` (stereo unspecified) stands inactive: 84%.
On to `COc1ccc(-c2nc(CCNC(=O)c3cc(OC)c(OC)c(OC)c3)cs2)cc1`, for which the survival was inactive: 136%.
Take `CCCN1CCN(CC2=C(C(=O)OCC)C(c3ccc(Cl)cc3)NC(=O)N2)CC1` (stereo unspecified): the survival was inactive: 90%.
Regarding `COc1ccc(CNC(=O)Cc2c(C)c3c(cc(C)c4c(C)coc43)oc2=O)cc1`, the survival was inactive: 89%.
Under `COc1ccc(Cl)cc1NC(=O)CCCn1c(=O)c2cccn2c2cccnc21` stands inactive: 88%; under `COC(=O)c1c(NC(=O)c2ccc(S(=O)(=O)N3CCCCC3C)cc2)sc2c1CCN(C(C)C)C2` (stereo unspecified), inactive: 135%; under `CCOC(=O)N1CCc2c(sc(NCc3ccc(OC)c(Br)c3)c2C(=O)Nc2cc(OC)ccc2OC)C1`, inactive: 99%.
For the molecule `CCOC(=O)c1ccccc1NC(=O)N(Cc1ccc(C)cc1)Cc1cccn1-c1nnc(N2CCCC2=O)s1`, the survival is inactive: 127%.
With `c1ccc(CCCN2CCN(C3CCCC3)CC2)cc1` the figure was inactive: 105%; with `CCC(C)n1c(=N)c(S(=O)(=O)c2ccc(C)cc2)cc2c(=O)n3cc(C)ccc3nc21` (stereo unspecified), inactive: 85%; with `Cc1ccccc1-c1noc(CSc2nnc(Cc3ccccc3)n2-c2ccc(F)cc2)n1`, inactive: 83%.
Under `COc1ccc(-c2noc(CSc3nnc(-c4ccncc4)n3-c3ccccc3)n2)cc1` stands inactive: 82%.
Regarding `COC(=O)C1CCN(S(C)(=O)=O)CC1`, the survival was inactive: 102%.
Under `Cc1ccc(CNC(=O)c2c(-c3ccccc3F)noc2C)o1` stands inactive: 80%; under `Cc1cc(C(=O)O)on1`, inactive: 109%.
Under `COc1cccc(NC(=O)Cn2c(=O)n(CCCC(=O)NCc3ccc4c(c3)OCO4)c(=O)c3ccccc32)c1` stands inactive: 111%; under `O=S(=O)(Cc1ccccc1)N1CCC(c2nc(-c3cccs3)no2)CC1`, inactive: 110%.
With `Cc1cccc(C(=O)Nc2ccc(N3CCC(CCN4CCOCC4)CC3)c(C(=O)O)c2)c1` the figure was inactive: 53%; with `O=C(Nc1ccc(S(=O)(=O)N2CCC(c3nc4ccccc4s3)CC2)cc1)c1ccccc1F`, inactive: 87%.
